This test concerns the target T1, human M2 receptor (Homo sapiens, UniProt P08172).
T1 sequence (P08172 1-466): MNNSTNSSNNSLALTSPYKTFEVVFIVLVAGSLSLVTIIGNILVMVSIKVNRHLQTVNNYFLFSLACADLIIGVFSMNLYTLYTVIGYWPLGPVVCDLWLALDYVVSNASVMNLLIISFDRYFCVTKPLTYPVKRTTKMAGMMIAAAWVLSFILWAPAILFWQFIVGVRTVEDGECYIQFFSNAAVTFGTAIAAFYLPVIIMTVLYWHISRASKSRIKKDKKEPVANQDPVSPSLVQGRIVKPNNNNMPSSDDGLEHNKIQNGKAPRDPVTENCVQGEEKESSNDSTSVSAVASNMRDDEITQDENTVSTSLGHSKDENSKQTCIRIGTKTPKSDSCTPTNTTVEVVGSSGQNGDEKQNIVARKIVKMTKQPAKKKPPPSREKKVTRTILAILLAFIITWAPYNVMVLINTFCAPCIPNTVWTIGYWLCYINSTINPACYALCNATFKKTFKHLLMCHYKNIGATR
Particulars: read-out: Efficiency, M2-GIRK1/4 activation test; boosting of the acetylcholine effect at an EC20 acetylcholine concentration.

Data on eleven compounds can be found in patent US20190367516A1 (Bayer Pharma Aktiengesellschaft, priority 2015, published 2019).

On to `CC(C)(CC(F)(F)F)NC(=O)c1cn(-c2c(F)cc(F)cc2F)c2nc(N3CCCN(CCO)C3=O)ccc2c1=O` [Example 383, 7-[3-(2-Hydroxyethyl)-2-oxotetrahydropyrimidin-1(2H)-yl]-4-oxo-N-(4,4,4-trifluoro-2-methylbutan-2-yl)-1-(2,4,6-trifluorophenyl)-1,4-dihydro-1,8-naphthyridine-3-carboxamide], for which the Emax was found to be 85.5%. Then `CN(CCO)c1ccc2c(=O)c(C(=O)N[C@@H](C3CC3)C(F)(F)F)cn(-c3c(F)cc(F)cc3F)c2n1` [Example 384, N-[(1S)-1-Cyclopropyl-2,2,2-trifluoroethyl]-7-[(2-hydroxyethyl)(methyl)amino]-4-oxo-1-(2,4,6-trifluorophenyl)-1,4-dihydro-1,8-naphthyridine-3-carboxamide], with 88%. For the compound `CN(CC(=O)O)c1ccc2c(=O)c(C(=O)N[C@@H](C3CC3)C(F)(F)F)cn(-c3c(F)cc(F)cc3F)c2n1` [Example 385, N-[6-{[(1S)-1-Cyclopropyl-2,2,2-trifluoroethyl]carbamoyl}-5-oxo-8-(2,4,6-trifluorophenyl)-5,8-dihydro-1,8-naphthyridin-2-yl]-N-methylglycine], the Emax was found to be 72.5%. Take `O=C(N[C@H](C1CC1)C(F)(F)F)c1cn(-c2c(F)cc(F)cc2F)c2nc(N3C[C@@H](O)CC3=O)ccc2c1=O` [Example 386, N-[(1R)-1-Cyclopropyl-2,2,2-trifluoroethyl]-7-[(4S)-4-hydroxy-2-oxopyrrolidin-1-yl]-4-oxo-1-(2,4,6-trifluorophenyl)-1,4-dihydro-1,8-naphthyridine-3-carboxamide]: the Emax turned out to be 97.8%. In the case of `O=C(N[C@H](C1CC1)C(F)(F)F)c1cn(-c2c(Cl)cc(F)cc2Cl)c2nc(N3C[C@@H](O)CC3=O)ccc2c1=O` [Example 387, N-[(1R)-1-Cyclopropyl-2,2,2-trifluoroethyl]-1-(2,6-dichloro-4-fluorophenyl)-7-[(4S)-4-hydroxy-2-oxopyrrolidin-1-yl]-4-oxo-1,4-dihydro-1,8-naphthyridine-3-carboxamide], the Emax was 95.5%.

As to `C[C@@H]1C[C@](C)(O)CN1c1ccc2c(=O)c(C(=O)N[C@@H](C)C(F)(F)F)cn(-c3c(F)cc(F)cc3Cl)c2n1` [Example 390, 1-(2-Chloro-4,6-difluorophenyl)-7-[(2R,4S)-4-hydroxy-2,4-dimethylpyrrolidin-1-yl]-4-oxo-N-[(2S)-1,1,1-trifluoropropan-2-yl]-1,4-dihydro-1,8-naphthyridine-3-carboxamide], the Emax is 88%. In the case of `CC(C)(CC(F)(F)F)NC(=O)c1cn(-c2c(F)cc(F)cc2Cl)c2nc(N3C[C@@H](O)[C@H](O)C3)ccc2c1=O` [Example 391, 1-(2-Chloro-4,6-difluorophenyl)-7-[(3R,4R)-3,4-dihydroxypyrrolidin-1-yl]-4-oxo-N-(4,4,4-trifluoro-2-methylbutan-2-yl)-1,4-dihydro-1,8-naphthyridine-3-carboxamide], the Emax turned out to be 97%. With `CC(C)(CC(F)(F)F)NC(=O)c1cn(-c2c(F)cc(F)cc2Cl)c2nc(N3CCNC3=O)ccc2c1=O` [Example 394, 1-(2-Chloro-4,6-difluorophenyl)-4-oxo-7-(2-oxoimidazolidin-1-yl)-N-(4,4,4-trifluoro-2-methylbutan-2-yl)-1,4-dihydro-1,8-naphthyridine-3-carboxamide], the Emax came to 100%. Consider `CC(C)Nc1ccc2c(=O)c(C(=O)NC34CCC(CC3)CC4)cn(-c3ccc(F)cc3F)c2n1` [compound 159], for which the Emax amounted to 88.9%. On to `O=C(NCc1c(Cl)cccc1Cl)c1cn(-c2ccc(F)cc2F)c2nc(N3CC(O)CC3=O)ccc2c1=O` (centres unmarked) [compound 183], for which the Emax was 98%. Then `CC(C)(NC(=O)c1cn(-c2ccc(F)cc2F)c2nc(N3CCCS3(=O)=O)ccc2c1=O)c1c(F)cccc1F` [compound 185], with 97.6%.
